{
  "source": "patent US7517874B2",
  "about": "(priority 2007, dated 2009)",
  "data": [
    {"molecular_target": "human CB2 receptor (hCB2) (Homo sapiens, UniProt P34972)", "sequence (P34972 whole entry)": "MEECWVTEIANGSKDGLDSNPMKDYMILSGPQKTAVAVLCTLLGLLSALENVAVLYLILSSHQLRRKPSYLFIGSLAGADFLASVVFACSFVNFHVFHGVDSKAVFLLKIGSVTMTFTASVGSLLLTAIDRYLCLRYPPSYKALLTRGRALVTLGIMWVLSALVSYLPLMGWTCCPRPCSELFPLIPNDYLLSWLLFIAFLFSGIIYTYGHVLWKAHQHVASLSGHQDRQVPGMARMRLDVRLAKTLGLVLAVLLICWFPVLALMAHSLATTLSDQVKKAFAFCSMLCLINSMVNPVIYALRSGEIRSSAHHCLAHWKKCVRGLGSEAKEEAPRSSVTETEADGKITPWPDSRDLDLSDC", "assay": "cell-based", "type": "cell-based", "conditions": "agonist or inverse agonist at hCB2", "values": [
      {"compound": "CC(C)(C)[C@H](CO)NC(=O)c1nc(-c2ccccc2)n2c1CNCC2", "note": "[Compound 23, (R)-N-(1-hydroxy-3,3-dimethylbutan-2-yl)-3-phenyl-5,6,7,8-tetrahydroimidazo[1,5-a]pyrazine-1-carboxamide]", "+/− HCB2": "+"},
      {"compound": "CCN1CCn2c(-c3ccccc3)nc(C(=O)N[C@H](C(=O)NC)C(C)(C)C)c2C1", "note": "[Compound 149, (S)-N-(3,3-dimethyl-1-(methyalmino)-1-oxobutan-2-yl)-7-ethyl-3-phenyl-5,6,7,8-tetrahydroimidazo[1,5-a]pyrazine-1-carboxamide]", "+/− HCB2": "+"},
      {"compound": "CC12CCC(C1)C(C)(C)C2NC(=O)c1nc(-c2ccccc2)n2c1CN(C(=O)C1CCOC1)CC2", "note": "(centres unmarked) [Compound 121, 3-phenyl-7-(tetrahydrofuran-3-carbonyl)-N-(1,3,3-trimethylbicyclo[2.2.1]heptan-2-yl)-5,6,7,8-tetrahydroimidazo[1,5-a]pyrazine-1-carboxamide]", "+/− HCB2": "+"},
      {"compound": "CNC(=O)[C@@H](NC(=O)c1nc(C2=CCC(C(C)(C)C)CC2)n2c1CN(C)CC2)C(C)(C)C", "note": "(stereo partly drawn) [Compound 271, 3-(4-tert-butylcyclohex-1-enyl)-N-((S)-3,3-dimethyl-1-(methylamino)-1-oxobutan-2-yl)-7-methyl-5,6,7,8-tetrahydroimidazo[1,5-a]pyrazine-1-carboxamide]", "+/− HCB2": "+"},
      {"compound": "CNC(=O)[C@@H](NC(=O)c1nc(-c2ccoc2)n2c1CNCC2)C(C)(C)C", "note": "[Compound 12, (S)-N-(3,3-dimethyl-1-(methylamino)-1-oxobutan-2-yl)-3-(furan-3-yl)-5,6,7,8-tetrahydroimidazo[1,5-a]pyrazine-1-carboxamide]", "+/− HCB2": "+"},
      {"compound": "CN1CCCn2c(-c3ccccc3)nc(C(=O)N[C@H](C(=O)NC3CCC3)C(C)(C)C)c2C1", "note": "[Compound 480, (S)-N-(1-(cyclobutylamino)-3,3-dimethyl-1-oxobutan-2-yl)-8-methyl-3-phenyl-6,7,8,9-tetrahydro-5H-imidazo[1,5-a][1,4]diazepine-1-carboxamide]", "+/− HCB2": "+"},
      {"compound": "CNC(=O)[C@@H](NC(=O)c1nc(-c2ccccc2OC(F)(F)F)n2c1CN(C)CCC2)C(C)(C)C", "note": "[Compound 333, (S)-N-(3,3-dimethyl-1-(methylamino)-1-oxobutan-2-yl)-8-methyl-3-(2-(trifluoromethoxy)phenyl)-6,7,8,9-tetrahydro-5H-imidazo[1,5-a][1,4]diazepine-1-carboxamide]", "+/− HCB2": "+"},
      {"compound": "CC(C)C[C@H](NC(=O)c1nc(-c2cc(Cl)c(F)cc2F)n2c1CN(C)CCC2)C(N)=O", "note": "[Compound 571, (S)-N-(1-amino-4-methyl-1-oxopentan-2-yl)-3-(5-chloro-2,4-difluorophenyl)-8-methyl-6,7,8,9-tetrahydro-5H-imidazo[1,5-a][1,4]diazepine-1-carboxamide]", "+/− HCB2": "+"},
      {"compound": "CN1CCn2c(-c3ccccc3)nc(C(=O)N[C@H](CO)C(C)(C)C)c2C1", "note": "[Compound 59, (S)-N-(1-hydroxy-3,3-dimethylbutan-2-yl)-7-methyl-3-phenyl-5,6,7,8-tetrahydroimidazo[1,5-a]pyrazine-1-carboxamide]", "+/− HCB2": "+"},
      {"compound": "CNC(=O)[C@@H](NC(=O)c1nc(-c2ccc(Cl)cc2F)n2c1CN(C)CC2)C(C)(C)C", "note": "[Compound 241, (S)-3-(4-chloro-2-fluorophenyl)-N-(3,3-dimethyl-1-(methylamino)-1-oxobutan-2-yl)-7-methyl-5,6,7,8-tetrahydroimidazo[1,5-a]pyrazine-1-carboxamide]", "+/− HCB2": "+"}
    ]},
    {"molecular_target": "human CB2 receptor (hCB2) (Homo sapiens, UniProt P34972)", "assay": "cell-based", "type": "cell-based", "conditions": "groups >100 nM-10 μM and >10 μM; cAMP, CHO-K1 hCB2; read-out: EC50 HCB2", "units": {"EC50": "nM"}, "values": [
      {"compound": "CN1CCn2c(-c3ccc(Cl)cc3F)nc(C(=O)N3CCC(n4c(=O)[nH]c5cc(Cl)ccc54)CC3)c2C1", "note": "[Compound 212, 5-chloro-1-(1-(3-(4-chloro-2-fluorophenyl)-7-methyl-5,6,7,8-tetrahydroimidazo[1,5-a]pyrazine-1-carbonyl)piperidin-4-yl)-1H-benzo[d]imidazol-2(3H)-one]", "EC50": "> 10000"}
    ]}
  ]
}
